Measured values as given in the supplement of paper PMC6089552.
The whole screen tested about 3,200 compounds, of which about 300 (9.4%) showed activity. The entries are a selection whose mix differs from that of the whole data set.

System: A673/TR/shEF
Assay: cell viability (LOESS-normalised, relative to median of negative controls) (log2 ratio); higher = more viable cells (less compound effect), active = hit call of the paper (over 3 MAD below the median)
Conditions: treatment time: 72 h
In short: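 A673/TR/shEF Ewing sarcoma cells were plated at 1,500 per well in 384-well plates and cultured with or without doxycycline, added 24 h before compounds, to induce EWS-FLI1 shRNA knockdown. Library compounds at two or more concentrations, alongside DMSO controls, were applied for three days. Cell viability was measured by CellTiter-Glo luminescence on an Envision reader. Readings were LOESS-corrected per plate, divided by the median of negative controls and log2-transformed, and hits were wells lying at least three median absolute deviations from the median of all screened wells.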

[1] = 0.25 µM, library screen: screen1, EWS-FLI1 expression: high (no doxycycline)
[2] = 0.25 µM, library screen: screen1, EWS-FLI1 expression: low (doxycycline-induced shRNA knockdown)
[3] = 2.5 µM, library screen: screen1, EWS-FLI1 expression: high (no doxycycline)
[4] = 2.5 µM, library screen: screen1, EWS-FLI1 expression: low (doxycycline-induced shRNA knockdown)
[5] = 0.25 µM, library screen: screen2, EWS-FLI1 expression: high (no doxycycline)
[6] = 0.25 µM, library screen: screen2, EWS-FLI1 expression: low (doxycycline-induced shRNA knockdown)
[7] = 2.5 µM, library screen: screen2, EWS-FLI1 expression: high (no doxycycline)
[8] = 2.5 µM, library screen: screen2, EWS-FLI1 expression: low (doxycycline-induced shRNA knockdown)
[9] = 25 µM, library screen: screen3, EWS-FLI1 expression: high (no doxycycline)

Measured: cell viability (log2)

NC[C@H]1O[C@H](O[C@H]2[C@H](O[C@@H]3O[C@H](CO)[C@@H](O)[C@H]3O)[C@@H](O)[C@H](N)C[C@@H]2N)[C@H](N)[C@@H](O)[C@@H]1O
inactive: [1] 0.051 | [2] 0.0364 | [3] 0.0972 | [4] 0.0515

COc1ccc2[nH]cc(CCNC(C)=O)c2c1
inactive: [1] 0.11 | [2] 0.114 | [5] 0.198 | [6] 0.0987 | [3] 0.194 | [4] 0.0654 | [7] 0.157 | [8] 0.0646

C[C@@H]1CC[C@@]2(OC1)O[C@H]1C[C@H]3[C@@H]4CC[C@H]5C[C@@H](O)CC[C@]5(C)[C@H]4C[C@@H](O)[C@]3(C)[C@H]1[C@@H]2C
inactive: [1] 0.0822 | [2] 0.0668 | [3] 0.111 | [4] 0.136

COc1ccc(C(=O)NCc2cccnc2)cc1C(=O)NCc1cccnc1
inactive: [5] 0.0996 | [6] -0.0166 | [7] 0.145 | [8] 0.053

Cc1ccc(S(=O)(=O)NC(=O)NN2CC3CCCC3C2)cc1 (centres undefined)
inactive: [1] 0.204 | [2] 0.195 | [3] 0.233 | [4] 0.201

COc1ccc(-c2cc(=O)c3c(O)cc(O)cc3o2)cc1
inactive: [1] 0.108 | [2] 0.0451 | [3] 0.189 | [4] 0.17

COc1cccc(CN2CCN(Cc3ccc(C(F)(F)F)cc3)CC2)c1OC
inactive: [1] 0.159 | [2] 0.109 | [3] 0.129 | [4] 0.101

CC(=O)N[C@@H](CC(=O)N[C@@H](CCC(=O)O)C(=O)O)C(=O)O
inactive: [1] 0.166 | [2] 0.108 | [3] 0.213 | [4] 0.109

O=c1c(O)c(-c2cc(O)c(O)c(O)c2)oc2cc(O)cc(O)c12
inactive: [1] 0.0195 | [2] 0.156 | [5] 0.118 | [6] 0.093 | [3] 0.0517 | [4] 0.0582 | [7] 0.111 | [8] 0.0599

O=C(O)c1cc2ccccc2[nH]1
inactive: [1] 0.123 | [2] 0.0929 | [3] 0.0969 | [4] 0.132

NCCS(=O)(=O)O
inactive: 0.103 µM, library screen: screen3, EWS-FLI1 expression: high (no doxycycline) 0.0698 | 0.103 µM, library screen: screen3, EWS-FLI1 expression: low (doxycycline-induced shRNA knockdown) 0.0172 | [5] 0.24 | [6] 0.0346 | 0.308 µM, library screen: screen3, EWS-FLI1 expression: high (no doxycycline) 0.0898 | 0.308 µM, library screen: screen3, EWS-FLI1 expression: low (doxycycline-induced shRNA knockdown) 0.0123 | 0.926 µM, library screen: screen3, EWS-FLI1 expression: high (no doxycycline) 0.0831 | 0.926 µM, library screen: screen3, EWS-FLI1 expression: low (doxycycline-induced shRNA knockdown) 0.00375 | [7] 0.16 | [8] 0.0945 | 2.8 µM, library screen: screen3, EWS-FLI1 expression: high (no doxycycline) -0.015 | 2.8 µM, library screen: screen3, EWS-FLI1 expression: low (doxycycline-induced shRNA knockdown) 0.0346 | 8.3 µM, library screen: screen3, EWS-FLI1 expression: high (no doxycycline) 0.00366 | 8.3 µM, library screen: screen3, EWS-FLI1 expression: low (doxycycline-induced shRNA knockdown) 0.0799 | [9] -0.00518 | 25 µM, library screen: screen3, EWS-FLI1 expression: low (doxycycline-induced shRNA knockdown) 0.0747

COc1cc2nc(N3CCN(C(=O)c4ccco4)CC3)nc(N)c2cc1OC
inactive: [1] 0.118 | [2] 0.0665 | [5] 0.286 | [6] 0.101 | [3] 0.14 | [4] 0.108 | [7] 0.255 | [8] 0.216

CCn1cc(C(=O)O)c(=O)c2cnc(N3CCNCC3)nc21
inactive: [1] 0.0531 | [2] 0.0384 | [3] 0.0127 | [4] 0.105

C/C1=C\CC(C)(C)/C=C\CC2(C)OC2CC1 (centres undefined)
inactive: [1] 0.0693 | [2] 0.00465 | [3] 0.118 | [4] 0.162

Cc1ccc(NC(=O)c2ccc(CN3CCN(C)CC3)cc2)cc1Nc1nc(-c2cccnc2)cs1
active: [9] -0.709

COc1nc(C)nc(Cl)c1NC1=NCCN1
inactive: [5] -0.000312 | [6] 0.057 | [7] 0.0861 | [8] 0.137

O=C(CCCN1CC=C(n2c(=O)[nH]c3ccccc32)CC1)c1ccc(F)cc1
inactive: [1] -0.004 | [2] 0.0501 | [5] 0.178 | [6] 0.0521 | [3] 0.0619 | [4] -2.38 | [7] 0.187 | [8] 0.0853

CC(/C=C/C=C(\C)c1cc(C(C)(C)C)cc(C(C)(C)C)c1)=C\C(=O)O
inactive: [5] 0.134 | [6] 0.0751 | [7] 0.0952 | [8] 0.134

Oc1c(I)cc(I)c2cccnc12
inactive: [1] 0.0428 | [2] -0.013 | [3] 0.0346 | [4] -0.603

C#CCN(C)Cc1ccccc1
inactive: [1] 0.0858 | [2] 0.0954 | [5] 0.078 | [6] -0.0346 | [3] 0.175 | [4] 0.102
active: [7] -1.76 | [8] -2.08

O=c1[nH]c2ccccc2c2ccccc12
inactive: [5] 0.226 | [6] 0.0587 | [7] 0.237 | [8] 0.0634

COc1cc(/C=C2\SC(NC(C)=O)=NC2=O)cc(Br)c1OC
inactive: [1] 0.0313 | [2] 0.0267 | [3] 0.0885 | [4] 0.0962

COc1ccc2cc(CCC(C)=O)ccc2c1
inactive: [1] 0.12 | [2] -0.0168 | [3] 0.127 | [4] 0.088

Cc1cccc(/C=C/c2ccccc2)n1
inactive: [5] 0.22 | [6] 0.057 | [7] 0.149 | [8] 0.0404

CCCCCC(C)N (centres undefined)
inactive: [1] 0.0593 | [2] 0.106 | [3] 0.159 | [4] 0.171

CCOc1ccc(C(=O)c2cc(O)c(OC)c(OC)c2O)cc1
inactive: [1] 0.0714 | [2] 0.0518 | [3] 0.162 | [4] 0.129

CCn1cc(C(=O)O)c(=O)c2ccc(C)nc21
inactive: [1] 0.0182 | [2] 0.124 | [5] 0.0982 | [6] 0.00565 | [3] 0.165 | [4] 0.105 | [7] 0.151 | [8] 0.0813

O=C(Cn1ccnc1[N+](=O)[O-])NCCO
inactive: [1] 0.106 | [2] 0.0865 | [3] 0.111 | [4] 0.106

CC(=O)OCC(COC(C)=O)OC(C)=O
inactive: [1] 0.0384 | [2] 0.171 | [3] 0.188 | [4] 0.227
